Assay results: article PMC11995724, “Antibiotic target discovery by integrated phenotypic and activity-based profiling of electrophilic fragments” (Cell chemical biology, 2025)
Hit rate of the full screen: of about 3,200 compounds, about 75 (2%) showed an effect of 50% or more. The list shows a part of the results.

Tested on: T1, S. aureus MSSA476
T1 construct: MSSA476
Design: species or system S. aureus MSSA476 (TSB) or V. cholerae SAD30 (LB); 384-well bacterial growth screen at 25 uM, OD600 relative to DMSO control
Conditions: relative growth, OD600, TSB; 25 µM; inhibitor

| Compound | % of control remaining [%] |
| --- | --- |
| C=CC(=O)N1CCC(C(=O)NC[C@H]2C[C@@H](O)C2)(c2ccccc2)CC1 [3-O04, 4-phenyl-1-(prop-2-enoyl)-N-{[(1s,3s)-3-hydroxycyclobutyl]methyl}piperidine-4-carboxamide] | 96.8219 |
| Cc1cc(C=C(C#N)C(=O)NCc2ccco2)cc(C)c1O [8-J16, 2-cyano-N-[(furan-2-yl)methyl]-3-(4-hydroxy-3,5-dimethylphenyl)prop-2-enamide] | 103.237 |
| CN(C)C(=O)c1csc(C(=O)CCl)c1 [10-I07, 5-(2-chloroacetyl)-N,N-dimethylthiophene-3-carboxamide] | 122.813 |
| C=CC(=O)NCc1cccc(OC)n1 [1-H22, N-[(6-methoxypyridin-2-yl)methyl]prop-2-enamide] | 112.527 |
| CC1CCCCC1OCCNC(=O)CCl (stereo not drawn) [6-O06, 2-chloro-N-{2-[(2-methylcyclohexyl)oxy]ethyl}acetamide] | 89.4634 |
| N#Cc1nc(-c2ccco2)oc1N1CCN(C(=O)CCl)CC1 [4-B22, 5-[4-(2-chloroacetyl)piperazin-1-yl]-2-(furan-2-yl)-1,3-oxazole-4-carbonitrile] | 109.385 |
| CC(C)CC(=O)Nc1ccc(C(=O)CCl)cc1 [10-N06, N-[4-(2-chloroacetyl)phenyl]-3-methylbutanamide] | 1.25 |
| Cc1cc(C(=O)CCl)c(C)n1C1CCS(=O)(=O)C1 (stereo not drawn) [10-B12, 3-[3-(2-chloroacetyl)-2,5-dimethyl-1H-pyrrol-1-yl]-1lambda6-thiolane-1,1-dione] | 128.438 |
| N#Cc1cccc2c1CC[C@H]2NC(=O)CCl [7-D06, 2-chloro-N-[(1R)-4-cyano-2,3-dihydro-1H-inden-1-yl]acetamide] | 91.9937 |
| COc1cccc(NC(=O)C(C#N)=Cc2ccc(C)cc2C)c1 [8-C16, 2-cyano-3-(2,4-dimethylphenyl)-N-(3-methoxyphenyl)prop-2-enamide] | 120.166 |
| N#CC(=Cc1ccsc1)C(=O)Nc1nccs1 [9-C17, 2-cyano-N-(1,3-thiazol-2-yl)-3-(thiophen-3-yl)prop-2-enamide] | 97.0787 |
| C=CC(=O)NC1(C(N)=O)CCCC1C (stereo not drawn) [3-B09, 2-methyl-1-(prop-2-enamido)cyclopentane-1-carboxamide] | 127.122 |
| C=CC(=O)NCc1n[nH]c(=O)n1C1CC1 [3-N08, N-[(4-cyclopropyl-5-oxo-4,5-dihydro-1H-1,2,4-triazol-3-yl)methyl]prop-2-enamide] | 91.946 |
| CCn1cc(CN(C)C(=O)C(C)Cl)nn1 (stereo not drawn) [6-L22, 2-chloro-N-[(1-ethyl-1H-1,2,3-triazol-4-yl)methyl]-N-methylpropanamide] | 92.878 |
| COCCn1c(N)c(C(=O)CCl)c(=O)[nH]c1=O [10-N12, 6-amino-5-(2-chloroacetyl)-1-(2-methoxyethyl)-1,2,3,4-tetrahydropyrimidine-2,4-dione] | 101.563 |
| O=C(CCl)Nc1ccccc1S(=O)(=O)C(F)F [4-B18, 2-chloro-N-(2-difluoromethanesulfonylphenyl)acetamide] | 119.676 |
| Cc1ccccc1NC(=O)C(C#N)=Cc1ccccc1Cl [8-N05, 3-(2-chlorophenyl)-2-cyano-N-(2-methylphenyl)prop-2-enamide] | 84.6473 |
| C=CC(=O)Nc1ccc(OCCC)c(C)c1 [1-C20, N-(3-methyl-4-propoxyphenyl)prop-2-enamide] | 110.769 |
| C=CC(=O)N1CCC(c2nnc(C)o2)CC1 [3-N04, 1-[4-(5-methyl-1,3,4-oxadiazol-2-yl)piperidin-1-yl]prop-2-en-1-one] | 120.853 |
| COC1CCN(c2ccc(F)cc2CN(C)C(=O)C(C)Cl)CC1 (stereo not drawn) [7-I11, 2-chloro-N-{[5-fluoro-2-(4-methoxypiperidin-1-yl)phenyl]methyl}-N-methylpropanamide] | 101.099 |
| CC(C)NC(=O)C(C#N)=Cc1ccc(F)cc1 [9-I09, 2-cyano-3-(4-fluorophenyl)-N-(propan-2-yl)prop-2-enamide] | 105.768 |
| Cc1ccc(C=C(C#N)C(=O)Nc2ccc(N3CCOCC3)cc2)s1 [8-A06, 2-cyano-3-(5-methylthiophen-2-yl)-N-[4-(morpholin-4-yl)phenyl]prop-2-enamide] | 106.888 |
| Cl.O=C(CCl)c1ccncc1F [10-I09, 2-chloro-1-(3-fluoropyridin-4-yl)ethan-1-one hydrochloride] | 93.75 |
| O=C1C=CC(=O)N1c1ccccc1F [10-D17, 1-(2-fluorophenyl)-2,5-dihydro-1H-pyrrole-2,5-dione] | 118.75 |
| N#CC(=Cc1ccccc1Cl)C(=O)Nc1ccc(Cl)cc1 [8-B11, 3-(2-chlorophenyl)-N-(4-chlorophenyl)-2-cyanoprop-2-enamide] | 99.2531 |
| CC(Cl)C(=O)Nc1cccnc1Cl (stereo not drawn) [6-C17, 2-chloro-N-(2-chloropyridin-3-yl)propanamide] | 109.61 |
| COc1ccc(NC(=O)C(C#N)=CC=Cc2ccccc2)cc1Cl [8-M18, N-(3-chloro-4-methoxyphenyl)-2-cyano-5-phenylpenta-2,4-dienamide] | 98.5892 |
| O=C(CCl)Nc1nccc(Cl)n1 [6-C19, 2-chloro-N-(4-chloropyrimidin-2-yl)acetamide] | 110.976 |
| C=CC(=O)Nc1cnn(-c2ccccc2)c1C(F)F [3-I03, N-[5-(difluoromethyl)-1-phenyl-1H-pyrazol-4-yl]prop-2-enamide] | 88.1149 |
| CC(Cl)C(=O)NCc1ccn(CC(F)F)n1 (stereo not drawn) [7-I17, 2-chloro-N-{[1-(2,2-difluoroethyl)-1H-pyrazol-3-yl]methyl}propanamide] | 98.2732 |
